This passage reports self-cleavage results from the RNAGym collection of RNA variant scans (doi:10.7554/elife.90254).

The chains are these.
B1: OR4K15 (parent)
chain: GUUAACGGUCAUAGGCCAUGGAAACUAGGAGCACCAUUUCGCUGCCAGUGAAGAAAUGAACAAAGAAAAUCUGGGCCAGGCAGGCAUCAAAAGAAAUAGUCUUGCGCUCAACCAGAAAGUCUGUAAUCAUUUUAAGGGUA

Read counts are not given, so values of variants with three or more changes are uncertain.

The variants in the series derive from B1. Description: self-cleavage, relative activity (ratio to wild type); higher = more cleavage; in vitro, sequencing; the parent is a self-cleaving ribozyme.
Turning to G14U C40A C105U, the self-cleavage amounted to 0.14.
The value for G15U A51G A56G A68G C77U was 1.49.
Take A13G U37C G50U: the self-cleavage came out at 0.75.
Then U12C U19G A90G A91G A114G U130C, with 0.17; and U12C A117G A135U, with 0.81.
The value for G14U U57C A92G was 1.36; that for A13G A96C A117G was 1.88; that for A13U U39C A69G U127C A129U was 1.23.
Then A13C A98U U132C, with 0.83; and C17U A55G C85U U103C, with 0.22; and U12C U57C A67G C107U A116U U130C, with 0.01.
As for U12C A36G U49C A67G, the self-cleavage came to 0.71.
The value for G15U A23G A69G U102C was 1.97; that for U12C A33G A56G A64G was 0.72; that for A13G A22G A68G U87C was 0.64.
Take A13G A33C A96G: the self-cleavage stood at 0.32.
The value for C17U A54G A94G was 1.18; that for U12C G48A A59C was 1.38; that for U12C U38C A90G was 1.12.
The value for A13G A22G A24G A64G G106A A111G was 0.04; that for A13G A33U A68U A94G U100C was 1.14; that for U12C A94U U124C was 0.29.
Then A13G A33G U97C G104A G119C, with 0.02; and G15U U43C A63G A86G A94G U103C, with 0.12; and G14A U19G A54G A60G, with 0.84.
For U12C G106A U132A, the self-cleavage was found to be 0.01.
Then U12C A69G A116G, with 0.55; and A13U A86G U97A, with 0.69; and C16G A55G A135G G137A, with 1.18.
Take A13G U49G A60G U122C: the self-cleavage was found to be 0.46.
Take U12C U120A A134G: the self-cleavage came out at 1.04.
The value for A13G U37C U108C U124C was 0.02; that for G14A A60G A117G was 1.39; that for U12C A51C A52G was 0.67.
Regarding C17A U43C U133A, the self-cleavage was 1.02.
A13G A30U A95G A129G: the self-cleavage is 2.26.
As for A13U A22G U26C G29A U37C A78G U97G, the self-cleavage worked out at 0.39.
The value for A13U U37C U57C A92G U122C U130C was 1.02; that for G15U A56G U120C U130C was 0.51; that for G15A A24C A94U A118U A126G was 0.83.
Then A13G A51U A95G U124C, with 0.7; and U12G A56G U103A, with 1.16.
The value for U12G A30G U39C A51G U102A U103C A126G was 0.07; that for A13U A52G A55G A60G was 1.1.
As for G15A A59G C105U, the self-cleavage amounted to 0.18.
Take G15A U43C U130C: the self-cleavage amounted to 0.48.
As to G15A U108C U132G, the self-cleavage came out at 0.
Then A13U C17U U19C A22G A54G, with 1.8; and A13G U108C A126G, with 0.04; and G14A A22U A66U, with 1.45.
For C16G U108A A114G, the self-cleavage worked out at 0.09.
Take C16U A18U A24C A36G U57C U72C: the self-cleavage was 0.21.
The value for G15A A23U A30G A91C was 1.25; that for U12C A91G A114U A118U was 0.03; that for A13G A23G A62G U131C was 0.19.
Then U12C A30G A68G, with 1.02; and G15U U37C A90G, with 1.26; and U12C A66G U87C A96G, with 1.41.
Then U12C U39A U49A U57C A82G A89G U122C, with 0.21; and G15C G106A U120A A134G, with 0.01.
On to A13G A78G A126C, for which the self-cleavage was 0.13.
For A13G A52G A140G, the self-cleavage turned out to be 1.11.
The value for A13U U43C A110U U120A U132C was 0.62; that for U12C A56G A67G U97C A98G A110C was 0.14.
With C17U U26C A55U A62G A90G A92U, the self-cleavage worked out at 1.07.
The value for G15A A62G A78G U102C was 0.2.
Then A13G U57C A118G, with 0.56; and A13G U57C A114G U130C, with 0.14; and A13U A60G C109G, with 0.07.
As to A13G A22G A63G A86G, the self-cleavage came out at 0.85.
In the case of A13G U39C A66G A89U U122G, the self-cleavage amounted to 1.22.
Regarding A13G U97C A116G, the self-cleavage was 0.2.
Regarding G14U U37C G106U A114G, the self-cleavage stood at 0.01.
C17U U37G U87C: the self-cleavage came out at 0.24.
Turning to A13G A22G A111G, the self-cleavage is 0.19.
In the case of U12C A66G A94G, the self-cleavage came out at 0.93.
The value for U12C U49C A90G U133A was 0.29.
A13G U26C A62G A96G: the self-cleavage stood at 1.18.
The value for U12C A52G A59G was 0.34; that for A13U A118G U139C was 1.02.
As for A13G A91G C121U, the self-cleavage worked out at 1.73.
Then C16U U37C A60G, with 0.9; and G14A U39C U43G U97G U131A, with 1.58.
The value for A13U A89G A110G A118G was 0.22; that for U12C A51G A59G A126G was 0.73; that for A13U A33G U37C was 1.66.
Turning to G14A A36U A56G, the self-cleavage was determined as 0.
G14C A47G A68G A134G: the self-cleavage came to 1.27.
A13U A55G U132C: the self-cleavage is 0.82.
Then A13G A47U U130C, with 0.21; and C17A A22G U38C U124C, with 1.18; and U12C U19C A33G A126G, with 0.37.
Then A13G A56G A117G, with 0.97.
The value for C17U U19C A116G A129C G138U was 0.06; that for A13G A111G U122C was 0.05; that for U12C U37C A86G A90G U124C U130G was 0.51.
Turning to G14C C16U U26C A90U A118G U122A, the self-cleavage was determined as 0.83.
Take U12C A66G U70C: the self-cleavage was 0.99.
The value for A13G G29U U120C was 1.49; that for C16U A18G A59G G138U was 1.11.
As to U12C C45U A56G U72A, the self-cleavage came to 0.4.
With U12C A60G A89G, the self-cleavage was 0.83.
The value for G15A U19C A51G A54G G123A G136A was 0.88; that for A13G A56G A125U was 0.
Then U12G A66G A92G U103C, with 0.7; and U12C A56G A96G, with 1.72.
The value for A13G U43G A52U A66G A114G was 1.39.
For C16U U43C A89U U100C, the self-cleavage was 1.75.
The value for A13G A51G A86U was 1.36; that for C16U A18G A111U was 0.09.
With G14U A51U A63G A126G, the self-cleavage came to 0.28.
For G14A A51U A78U A95G U120C, the self-cleavage worked out at 0.29.
G15A A52G A66G: the self-cleavage stood at 1.11.
The value for A13U A64U A126G was 0.74; that for A13U A52G A63G U97C was 1.22; that for A13G A54G U108C was 0.13.
Regarding A13G U37C C88U, the self-cleavage came to 1.45.
Take C16A U43C C121A: the self-cleavage stood at 0.17.
A13G A82U A114U U132C: the self-cleavage was 0.11.
With G15A U43C A66U A69G A82G, the self-cleavage came to 0.62.
Regarding A13C A23G U132C, the self-cleavage came to 1.69.
The value for A13G U19C G138U was 1.4.
Consider U12C A33U A54G A60G A82U, for which the self-cleavage is 0.14.
On to U12C U19C A24G A116G, for which the self-cleavage amounted to 0.72.
Then U12C U39C A125G, with 0.69.
The value for A13U A23G U103C was 1.24; that for U12C U87C A118G was 0.57.
Turning to U12C A36G A56G U122A, the self-cleavage came to 0.68.
Then C16G A47G A55G, with 0.95.
The value for A13U A63U A68C was 0.89; that for U12C A60G A92G was 1.45; that for A13G C46U A52C A55G A90G U100C was 1.6.
Then U12C A110G A118G U133C, with 0.22.
For U12C A30G U131C A140G, the self-cleavage was 1.27.
Then A13G A82G U132C, with 0.47; and A13U A92G C105U A116U U127C, with 0.06.
The value for U12G A52G A59G was 1.05; that for G14U C32U A55G U103C was 1.25.
Take U12C A62G A82U A126G: the self-cleavage was found to be 0.19.
In the case of G15A A22G A82G, the self-cleavage was 0.63.
As to A13G A59G U102C A118G, the self-cleavage stood at 1.78.
The value for A13U U19A A111G was 0.09; that for A13G U37C U131C was 1.45; that for A13G U97C A118G was 0.32.
As for G14C C35U A54U A140G, the self-cleavage came to 1.01.
For the variant C16G A67G A96G U103C, the self-cleavage is 0.4.
On to G15A A23G A110C, for which the self-cleavage was 0.23.
On to A13G A22G U43G A66G U102C A116G U131C, for which the self-cleavage amounted to 1.36.
Then C16U A18G U57G A116G, with 0.2; and A13G A51C A89G, with 0.73.
Take C16U U72A C105A: the self-cleavage was found to be 0.05.
Then U12G A22G U26A U72C, with 0.38.
As to U12C A68C U72G U100A U122C, the self-cleavage is 0.09.
Then C17U A51G A86G U87C A95G A118G, with 0.11; and A13G U43C U57C G83A, with 0.85.
The value for A13G U57C A67G A117G was 0.87; that for U12C U70A G75C A92G was 0.07.
Consider C17U A36U A89U, for which the self-cleavage is 1.29.
For the variant A13G A60C A69U C81U, the self-cleavage is 0.41.
Then U12G A30G U49C A90G U108C, with 0.05; and G14A A95G A111G, with 0.01; and A13U A56G A116G U122C U124A A125G, with 0.22.
As to G14A A22G A59U, the self-cleavage stood at 1.49.
The value for A13G U72C A82U U102C U130C was 0.7.
On to A13G A52G A114U, for which the self-cleavage stood at 0.2.
As for G15C U38C U57C, the self-cleavage stood at 0.75.
Then U12C A68G A92G A94G A117G, with 1.28.
